Article PMC4336329 (PLoS ONE, 2015)
In all, about 310,000 compounds went through this assay and about 14,000 (4.5%) showed an effect of 50% or more. Effects have a minus sign here. The list shows a part of the results.

These molecules were tested against human ether-à-go-go-related gene (hERG) potassium channel (human, UniProt Q12809) (assay: primary screen, population patch clamp on CHO cells stably expressing hERG).
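Note: peak tail current of the secondary pulse compared with the same well before compound.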

Chain of human ether-à-go-go-related gene (hERG) potassium channel (Q12809 whole entry, looked up): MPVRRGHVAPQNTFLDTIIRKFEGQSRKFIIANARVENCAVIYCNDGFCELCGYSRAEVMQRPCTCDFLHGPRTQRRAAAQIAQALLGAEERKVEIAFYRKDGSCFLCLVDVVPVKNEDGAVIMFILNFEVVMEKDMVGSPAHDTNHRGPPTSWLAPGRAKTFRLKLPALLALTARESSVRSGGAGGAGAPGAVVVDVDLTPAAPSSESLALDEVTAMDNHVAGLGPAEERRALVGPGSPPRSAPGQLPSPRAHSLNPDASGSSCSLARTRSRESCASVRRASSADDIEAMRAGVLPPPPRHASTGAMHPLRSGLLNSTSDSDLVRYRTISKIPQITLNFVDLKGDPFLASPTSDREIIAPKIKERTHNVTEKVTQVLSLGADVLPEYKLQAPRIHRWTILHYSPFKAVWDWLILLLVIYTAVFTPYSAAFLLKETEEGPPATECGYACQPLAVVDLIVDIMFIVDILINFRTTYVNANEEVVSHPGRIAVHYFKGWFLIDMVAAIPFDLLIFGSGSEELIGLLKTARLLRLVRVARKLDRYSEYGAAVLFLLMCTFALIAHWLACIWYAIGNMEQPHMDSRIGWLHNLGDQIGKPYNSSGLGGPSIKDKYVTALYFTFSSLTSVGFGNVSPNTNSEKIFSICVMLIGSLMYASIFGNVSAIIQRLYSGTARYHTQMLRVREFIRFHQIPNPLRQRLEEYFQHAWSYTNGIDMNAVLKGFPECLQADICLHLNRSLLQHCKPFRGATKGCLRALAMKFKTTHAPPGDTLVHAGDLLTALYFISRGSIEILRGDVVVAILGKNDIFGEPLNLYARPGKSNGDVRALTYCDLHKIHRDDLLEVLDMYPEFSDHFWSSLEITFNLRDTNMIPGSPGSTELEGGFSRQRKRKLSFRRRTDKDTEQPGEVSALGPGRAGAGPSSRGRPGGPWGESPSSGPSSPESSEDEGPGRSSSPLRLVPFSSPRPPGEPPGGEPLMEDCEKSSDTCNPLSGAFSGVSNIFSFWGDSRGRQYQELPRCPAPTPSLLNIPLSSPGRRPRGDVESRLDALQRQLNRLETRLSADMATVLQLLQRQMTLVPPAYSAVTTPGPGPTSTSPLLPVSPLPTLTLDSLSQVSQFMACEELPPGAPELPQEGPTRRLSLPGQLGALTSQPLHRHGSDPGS

Compared with `Cc1cc(C(=O)CN2C(=O)NC(C)(c3cccc(Br)c3)C2=O)c(C)n1Cc1ccco1` (stereo not shown), `O=C(N/N=C/c1c(O)n(Cc2ccco2)c(=O)[nH]c1=O)c1ccccc1O` is higher in “hERG current change (%, negative = inhibition) at 10uM” value: -10.4% for the first, 3.1% for the second.

Going from `O=C(NCCCc1ccccc1)c1ccccc1` to `O=C(NC(c1ccccc1)C(Cl)Cl)c1ccccc1` (stereo not shown), the “hERG current change (%, negative = inhibition) at 10uM” value rises from -1.81% to 9.95%.

First: CC1(C)C(=O)N(c2ccccc2F)C(=O)c2ccccc21
Second: O=C1C2C3C=CC(CNS(=O)(=O)c4ccccc4[N+](=O)[O-])(O3)C2C(=O)N1c1ccccc1 (stereo not shown)
The “hERG current change (%, negative = inhibition) at 10uM” value of the first is higher: 23% for the first, -13.1% for the second.

Going from `COc1ccc(OC(=O)/C=C/c2ccc([N+](=O)[O-])cc2)cc1` to `COc1ccc(CC(=O)Nc2nc(-c3cccc([N+](=O)[O-])c3)cs2)cc1`, the “hERG current change (%, negative = inhibition) at 10uM” value falls from 17% to 0.13%.

First: Cc1ccccc1OCCC(=O)OCC(=O)Nc1c(C)nn(-c2ccccc2)c1C
Second: CCC(CC)C(=O)Nc1c(C(=O)N2CCN(c3ccccc3)CC2)oc2ccccc12
The “hERG current change (%, negative = inhibition) at 10uM” value of the first is higher: 10.4% for the first, 3.17% for the second.

First: Cc1ccc(S(=O)(=O)N(C)CC(=O)OCC(=O)NC(=O)Nc2ccc3c(c2)OCCO3)cc1
Second: COc1ccc(C)cc1NS(=O)(=O)c1ccc(-c2cnc(C3CC3)o2)cc1
The “hERG current change (%, negative = inhibition) at 10uM” value of the first is higher: 13.7% for the first, 0.824% for the second.

First: CC(=O)Nc1cccc(N(C)C)c1
Second: Cc1ccc(OCC(=O)Nc2cccc(O)c2)cc1C
The “hERG current change (%, negative = inhibition) at 10uM” value of the first is higher: 1.98% for the first, -1.17% for the second.

Compared with `Cc1cc(N)n(-c2ccc(S(=O)(=O)N3CCOCC3)cc2[N+](=O)[O-])n1`, `COc1ccc(NS(=O)(=O)c2ccc(N3CCCC3)c(N)c2)cc1` is higher in “hERG current change (%, negative = inhibition) at 10uM” value: -25.3% for the first, 13.8% for the second.

Going from `C=CCc1cccc2cc(C(=O)NCc3cccnc3)c(=O)oc12` to `O=C(NCc1ccc(-c2nc3ccccc3s2)cc1)c1ccc(Br)o1`, the “hERG current change (%, negative = inhibition) at 10uM” value rises from -27.5% to 9.77%.

Going from `O=C(c1ccc2[nH]ccc2c1)N1CCCC(Nc2ccccc2)C1` (stereo not shown) to `O=C(NCCc1c[nH]c2ccccc12)C1CCC(=O)N(CCc2cccc(F)c2)C1` (stereo not shown), the “hERG current change (%, negative = inhibition) at 10uM” value falls from -14.3% to -15.2%.

Compared with `Cc1ccsc1C(=O)OCC(=O)N1CCOCC1`, `CCCCC(=O)Nc1ccc(C(=O)N2CCN(C)CC2)cc1` is higher in “hERG current change (%, negative = inhibition) at 10uM” value: 5.45% for the first, 6.41% for the second.

Compared with `COC(=O)c1ccc(/C=C/c2c(-c3ccsc3)sc3ccccc23)cc1`, `Cc1ccc(C(=O)Oc2cccc(NC(=O)c3ccccc3)c2)cc1C` is lower in “hERG current change (%, negative = inhibition) at 10uM” value: 24.4% for the first, 19.2% for the second.

Going from `CC(=O)c1ccc(OCC(=O)NCC(c2ccco2)N2CCCCC2)cc1` (stereo not shown) to `O=C(COc1ccc2c3c(c(=O)oc2c1)CCCC3)NCCCN1CCCC1=O`, the “hERG current change (%, negative = inhibition) at 10uM” value falls from -4.83% to -7.14%.

Going from `O=C(N/N=C/c1ccccc1OC(=O)c1ccc2c(c1)OCO2)c1cccc(F)c1` to `O=C(Nc1cnc2ccccn2c1=O)c1ccc(F)cc1`, the “hERG current change (%, negative = inhibition) at 10uM” value falls from 9.33% to 5.59%.

First: C#CCNC(=O)[C@H](Cc1ccc(C(=O)c2ccccc2)cc1)NC(=O)OC(C)(C)C
Second: COc1cccc(OCCNC(=O)c2ccccc2Sc2ccccc2C#N)c1
The “hERG current change (%, negative = inhibition) at 10uM” value of the first is higher: 19.5% for the first, 0.896% for the second.

First: CN(/N=C/c1c[nH]c2ccccc12)c1cnn(-c2ccc(F)c(Cl)c2)c(=O)c1Cl
Second: CSc1ccccc1NC(=O)c1cnc2n(c1=O)CCS2
The “hERG current change (%, negative = inhibition) at 10uM” value of the first is lower: -5.66% for the first, -1.14% for the second.

First: Nc1nnc(-c2ccc(Cl)c(Cl)c2)s1
Second: Cc1nnc2sc(SCc3cccc(Cl)c3)nn2c1=O
The “hERG current change (%, negative = inhibition) at 10uM” value of the first is higher: 12.7% for the first, -12.5% for the second.

Compared with `COc1ccc(O)c(/C=C(\C#N)C(=O)Nc2cccnc2)c1`, `O=C(COC(=O)c1cc(F)cc(F)c1)Nc1cccnc1Cl` is higher in “hERG current change (%, negative = inhibition) at 10uM” value: 3.74% for the first, 4.12% for the second.

Compared with `CCc1ccc(NC(=O)Cc2ccc(NC3=NC4CS(=O)(=O)CC4S3)cc2)cc1` (stereo not shown), `CC(C)(C)c1nnc(NC(=O)Cc2ccc(Br)cc2)s1` is lower in “hERG current change (%, negative = inhibition) at 10uM” value: 13.5% for the first, 10.9% for the second.

Going from `O=S(=O)(Nc1cccnc1Cl)c1ccc(-c2ccccc2)cc1` to `Cc1cccnc1NC(=O)c1ccc(NS(=O)(=O)c2ccc3[nH]c(=O)[nH]c3c2)cc1`, the “hERG current change (%, negative = inhibition) at 10uM” value falls from 16.3% to -5.89%.

Compared with `CC(C)Cc1nnc(NC(=O)CCC(=O)NC2CC2)s1`, `COc1ccc(S(=O)(=O)N(C)CC(=O)NC2CC2)cc1OC` is lower in “hERG current change (%, negative = inhibition) at 10uM” value: 21.9% for the first, 7.62% for the second.

Going from `C=CCN=C(NC#N)SCC(=O)NC(C)(C)C` to `Cc1ccc(C)c(NC(=S)NC2CC3CCCC(C2)N3CC(C)C)c1` (stereo not shown), the “hERG current change (%, negative = inhibition) at 10uM” value falls from 16.7% to -28.7%.

Going from `C1CNCCN1.C[C@]12CC[C@@H]3c4ccc(OS(=O)(=O)O)cc4CC[C@H]3[C@@H]1CCC2=O` to `Cc1ccc2c(c1)nnn2C1CCN(S(C)(=O)=O)CC1`, the “hERG current change (%, negative = inhibition) at 10uM” value falls from 18.3% to -37.1%.

First: CCn1cc([N+](=O)[O-])c(C(=O)Nc2ccn(Cc3ccccc3F)n2)n1
Second: O=C(CSc1nc(=O)n2ccccc2n1)N1N=C(c2cccs2)CC1c1ccc(F)cc1 (stereo not shown)
The “hERG current change (%, negative = inhibition) at 10uM” value of the first is higher: 0.594% for the first, -52.2% for the second.

Going from `O=C(NO)C1CC2C=CC1C2` (stereo not shown) to `CC1CC1C(=O)Nc1nc(-c2ccccn2)cs1` (stereo not shown), the “hERG current change (%, negative = inhibition) at 10uM” value rises from 7.64% to 10.6%.

Compared with `O=c1[nH]c2c(s1)C(c1cccnc1)C1C3CCC(C3)C1S2` (stereo not shown), `CCN1CCN(C(=O)c2cc3cc(Cl)ccc3[nH]2)CC1` is lower in “hERG current change (%, negative = inhibition) at 10uM” value: -25.9% for the first, -59.8% for the second.

First: N#Cc1c2n(c3c(-c4ccccc4)ncnc13)CCC2
Second: O=C(O)CCn1nnc2ccccc21
The “hERG current change (%, negative = inhibition) at 10uM” value of the first is lower: 7.57% for the first, 13.3% for the second.

Compared with `CC(=O)Nc1ccc(S(=O)(=O)N2CCN(S(=O)(=O)N3CCCCC3)CC2)cc1`, `Cc1ccc2cc(C3CC(c4cccs4)=NN3S(C)(=O)=O)c(Cl)nc2c1` (stereo not shown) is lower in “hERG current change (%, negative = inhibition) at 10uM” value: -1.31% for the first, -9.76% for the second.

First: Cc1cccc(N=Cc2c(O)cc(C)oc2=O)c1
Second: COc1ccc(-c2nnn(CC#N)n2)cc1OC
The “hERG current change (%, negative = inhibition) at 10uM” value of the first is lower: 5.22% for the first, 14.6% for the second.
